This note sets out measurements from PubChem BioAssay AID1240 (Sanford-Burnham Center for Chemical Genomics, 2008).

About 800 (1.6%) of roughly 50,000 compounds showed an effect of 50% or more. The list shows a part of the results.

This test addresses Bcl-2-like protein 10 (Homo sapiens) (UniProt Q9HD36). Description: TR3 peptide-Bcl-B binding displacers, biochemical primary FP assay, phenotype converters (AID 1240).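 Further: 0% = Bcl-B with tracer peptide and DMSO and 100% = tracer peptide lacking Bcl-B.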 Conditions: GST-Bcl-B / FITC-TR3 peptide fluorescence polarization; stronger effect = higher value; compound at 3.75 mg/L. Background: Fluorescence polarisation rises when a labelled molecule tumbles more slowly, as on binding a larger partner.
UniProt Q9HD36, sequence (Q9HD36 whole entry, looked up): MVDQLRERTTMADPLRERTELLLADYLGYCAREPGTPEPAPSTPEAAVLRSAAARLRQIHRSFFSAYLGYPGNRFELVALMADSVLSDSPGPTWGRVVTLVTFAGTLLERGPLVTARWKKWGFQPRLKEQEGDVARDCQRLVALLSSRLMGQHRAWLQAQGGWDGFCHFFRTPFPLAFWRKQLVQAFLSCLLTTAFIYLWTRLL
Regarding `COc1cccc(OC)c1C(=O)NNC(=O)c1ccc(Cl)cc1`, the displacement was -9.4%.
The result for `O=S(=O)(Nc1ccc2c(c1)OCO2)c1cc(Cl)ccc1Cl` reads 5%; that for `COC(=O)c1ccccc1NC(=O)c1ccc(CN(c2ccccc2)S(C)(=O)=O)cc1`, 3%.
The result for `COc1ccccc1CNCc1cccc([N+](=O)[O-])c1` reads -4.6%; that for `Clc1ccc(Sc2c(-c3ccccc3)nc3sccn23)cc1`, -39.1%.
In the case of `Cc1ccc(C(=O)O)cc1N1C(=O)c2ccc(S(=O)(=O)c3ccc(C(=O)O)cc3)cc2C1=O`, the displacement is 17.1%.
As to `O=C(O)CC1NC(=S)N(c2ccccc2)C1=O` (stereo not given), the displacement was 8.8%.
For the compound `CC(=O)Oc1ccc(/C(C)=N/N2CCN(Cc3cccc4ccccc34)CC2)cc1`, the displacement stood at 15.4%.
Take `NC(=O)c1c(NC(=O)CN2C(=O)c3ccccc3C2=O)sc2c1CCC2`: the displacement is -4.8%.
As to `CCc1ccc(S(=O)(=O)Nc2ccccc2OC)cc1`, the displacement worked out at 13.8%.
Consider `Cc1ccc(NC(=O)C(C)(C)C)cc1[N+](=O)[O-]`, for which the displacement was -1.9%.
For the compound `CN1CCN(NC(=S)Nc2cccc(Cl)c2)CC1`, the displacement turned out to be 1.8%.
As to `O=C(Nc1ccc2nn(-c3ccc(Cl)cc3)nc2c1)c1ccc([N+](=O)[O-])cc1`, the displacement came to 15.7%.
In the case of `CCC(=O)N1c2ccccc2C(N(C(=O)c2ccccc2)c2cccc([N+](=O)[O-])c2)CC1C` (stereo not given), the displacement was -0.7%.
The figure for `Cc1ccc([N+](=O)[O-])c2c1NCC1CC=CC21` (stereo not given) is 5.9%; for `O=C(O)CCCCCN=C1CCCc2ccccc2N1` it is 10.9%; for `O=c1c(N=Nc2ccc(F)cc2)c(-c2ccccc2)[nH]n1-c1nc(-c2ccccc2)cs1` it is -3.5%.
`CCC1=NN(C(=O)CCc2ccccc2)C(O)(c2ccncc2)C1` (stereo not given): the displacement was -2.7%.
`CN1C(=O)/C(=C\c2ccc(OCCOc3ccc([N+](=O)[O-])cc3)cc2)SC1=S`: the displacement is -0.4%.
The result for `O=C(COc1ccccc1)NCCCNC(=O)COc1ccccc1` reads -6.6%.
Turning to `CCOc1cc(/C=C2\SC(=S)N(C3CCCCC3)C2=O)ccc1O`, the displacement was -19.4%.
`CCOC(=O)c1c(NC(=O)CNCc2ccccc2)sc2c1CCCCC2`: the displacement was -3.3%.
With `CCCCCC(=O)N/N=C(/C)c1cccs1`, the displacement is -8.9%.
With `Cc1cc(C)c(Cc2cc([N+](=O)[O-])ccc2C)c(C)c1`, the displacement was found to be 8.8%.
Take `Cc1cc2nc(-c3cccc(NC(=S)NC(=O)c4ccco4)c3)oc2cc1C`: the displacement came to 6.8%.
For `COc1cc(C(=O)N2CCc3ccccc3C2)cc(OC)c1OC`, the displacement is 10%.
Turning to `O=C(COc1ccccc1)N/N=C/c1ccccc1Cl`, the displacement is 6.3%.
Take `COC(=O)C1=C(C)N=C2SCCC(=O)N2C1c1cccs1` (stereo not given): the displacement is -5.1%.
The figure for `O=C1c2ccccc2NC(c2ccc(Br)cc2)N1Cc1ccco1` (stereo not given) is 10.1%; for `O=[N+]([O-])c1cccc(N/N=C/c2ccc(O)cc2O)c1` it is -10%.
The result for `O=C(Nc1ccc2oc(-c3cccc4c(Br)cccc34)nc2c1)c1ccccc1[N+](=O)[O-]` reads 10.3%; that for `O=S(=O)(Nc1ccnc2ccccc12)c1ccccc1`, 13.1%.
The figure for `COCCN1C(=O)C(=O)/C(=C(/O)c2ccccc2)C1c1ccccc1OC` (stereo not given) is 6.3%; for `NS(=O)(=O)c1ccc(NC(=S)NC(=O)c2ccccc2)cc1` it is 9.3%; for `CC1CCc2c(sc(NC(=O)c3ccccc3Br)c2C(=O)OC(C)C)C1` (stereo not given) it is -5.9%.
Regarding `c1ccc(CN2C3=NCCN3c3ccccc32)cc1`, the displacement was -5.7%.
On to `O=C(CCc1ccccc1)Nc1cccc(Br)c1`, for which the displacement was -8.2%.
For `CCOc1ccc(/C=C(/C#N)C(=O)Nc2cccc(Br)c2)cc1`, the displacement was 1.6%.
Take `O=C(NC(CO)(CO)CO)c1cccc(-c2ccc(O)cc2)c1`: the displacement amounted to 13.2%.
The figure for `c1ccc(-c2nc(NC3CCCCC3)cc(-n3cccn3)n2)cc1` is -8.4%; for `CC1CCc2c(sc(NC(=O)c3ccccc3Cl)c2C(=O)Nc2ccccc2Cl)C1` (stereo not given) it is -4.1%.
The figure for `O=C(COc1ccccc1)Nc1ccc(-c2nc3ncccc3o2)cc1` is 35.8%; for `O=C1C2C3C=CC(C3)C2C(=O)N1/N=C/c1ccc(-c2ccc(Cl)c([N+](=O)[O-])c2)o1` (stereo not given) it is 6.3%.
For `CS(=O)(=O)N(Cc1ccccc1)c1ccc(C(=O)Nc2ccc3c(c2)OCO3)cc1`, the displacement was 6.3%.
Take `Cc1ccc(NC(=O)c2cc(F)c(F)cc2Cl)nc1`: the displacement is -0.6%.
The figure for `COc1ccc(-c2noc(-c3cccc(Br)c3)n2)cc1` is 0%; for `C=C(C)Cn1c(SCC(=O)O)nnc1-c1ccc([N+](=O)[O-])cc1` it is -10.9%.
Take `O=C(Nc1c(-c2ccccc2)c2cc(Br)ccc2[nH]c1=O)c1cccc(Cl)c1`: the displacement was found to be 1.7%.
For `c1cnc2cc3c(cc2n1)Nc1nonc1N3`, the displacement was determined as 0.9%.
As to `Cc1n[nH]c(C)c1Sc1ccccc1N=Cc1cccc(Cl)c1`, the displacement was -7.6%.
On to `COc1cc(CN=Cc2c(O)n(-c3ccccc3Cl)c(=O)[nH]c2=O)cc(OC)c1`, for which the displacement was 3.2%.
As for `CCOc1cc(OCC)cc(C(=O)Nc2cccc(OC)c2)c1`, the displacement amounted to 8.5%.
Consider `Cc1cccc(OC(=O)c2cccc([N+](=O)[O-])c2)c1`, for which the displacement is -2.3%.
Turning to `CCn1c2ccccc2c2cc(C=Nc3ccc(OC(F)(F)F)cc3)ccc21`, the displacement turned out to be 5.5%.
For `Cc1ccc(N2C(=O)/C(=C/c3cc(C)n(C)c3C)C(=O)NC2=S)cc1`, the displacement is 97%.
In the case of `COc1cccc(C2/C(=C(\O)c3ccc(Br)cc3)C(=O)C(=O)N2c2ccccc2)c1` (stereo not given), the displacement was -7.2%.
Take `Cc1cc(C)cc(N2C(=O)NC(=O)/C(=C\c3ccc(N(C)C)o3)C2=O)c1`: the displacement was -29.4%.
On to `CCN(CC)CCCOc1cccc(Cl)c1`, for which the displacement stood at 6.9%.
For `Cc1[nH]n(-c2ccc(Cl)cc2)c(=O)c1C=Nc1ccc(S(=O)(=O)N2CCOCC2)cc1`, the displacement was -0.9%.
With `Cc1ccc(-c2nc3ccccc3o2)cc1NC(=O)COc1ccccc1[N+](=O)[O-]`, the displacement is -7.1%.
The result for `O=C1CCCC2=C1C(c1cccc([N+](=O)[O-])c1)C1C(=O)c3ccccc3C1=N2` (stereo not given) reads -7.7%; that for `CCN(CC)S(=O)(=O)c1cc(C(=O)NCc2ccccc2)ccc1Cl`, -10.4%; that for `COc1cc(NC(=O)c2cc(-c3cc(C)ccc3C)nc3ccccc23)c(OC)cc1Cl`, 18%.
With `CSCCNC(=O)c1ccc(C(C)(C)C)cc1`, the displacement is -1%.
`S=c1n(CN2CCOCC2)nnn1-c1ccccc1`: the displacement is -5.3%.
Consider `Cc1ccc(S(=O)(=O)N/N=C/c2sccc2C)cc1`, for which the displacement was -0.4%.
`COc1cccc(C(=O)Nc2ccccc2C(F)(F)F)c1`: the displacement turned out to be 3.9%.
`Cc1cccc(N2CCN(S(=O)(=O)c3ccc(F)cc3)CC2)c1C`: the displacement was -2.1%.
Take `CC(=O)NC(c1ccc2c(c1)OCO2)c1ccc2cccnc2c1O` (stereo not given): the displacement is -12.8%.
As for `COc1ccc(NC(=O)CN(c2ccc(C)cc2)S(C)(=O)=O)c(OC)c1`, the displacement came to 13.3%.
